To fix the notation:
B1: CPEB3 Ribozyme (parent)
chain: UAACAGGGGGCCACAGCAGAAGCGUUCACGUCGCAGCCCCUGUCAGAUUCUGGUGAAUCUGCGAAUUCUGCUGUAUAUCUC

The source gives no read counts; variants with many changes may rest on few reads.

In the data set the parent is B1. The experiment in a line: self-cleavage, relative activity (ratio to wild type); higher = more cleavage; in vitro, sequencing. In short, it runs like this:
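Libraries of CPEB3 self-cleaving ribozyme mutants came from rounds of error-prone PCR and carried barcodes, which DNA sequencing matched to variants. In vitro transcription used T7 RNA polymerase at 37°C for 5 hours, with a further 15 min in DNase I before EDTA stopped the reaction; the ribozymes cleaved during both steps. The RNA was reverse transcribed with template switching and sequenced on Illumina. Relative activity is the cleaved/total read fraction of a variant divided by that of the unmutated ribozyme, averaged over three batches with at least 5 reads.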
Turning to UAACAGGGGGCCACAGCAGAAGCGUUCACCUCGCUGCCCCUGUCAGAUUCUGGUGAAUCCGCGAAUUCUGCUGUAUAUCUC [G30C A35U U60C], the self-cleavage is 0.2. Turning to UAACAGGGGGCCACAGCAGAAGCGUUCACGACGCAGCCCCUGUCCGAUUCUGGUGAAUCUGCGAAUUCUGCUGUACACCUC [U31A A45C U76C U78C], the self-cleavage is 0.37. As for UAACAGGGGGCCACAGCAGAAGCGUUCACAUCGCAGCCCCAGUCAGGUUCUGGUGAAUCUGCGAAUUCUGCUGUAUAUCUC [G30A U41A A47G], the figure is 0.15; as for UAACAGGGGGCCACAGCAGAAGCGUUCACAUCGCAGCCCCUGUCAGAUUCUGGUGAAUCUGCGAAUUCUGCCGUAUAUCCC [G30A U72C U80C], 0.55; as for UAACAGGGGGCCACAGCAGAAGCGUUCACUUAGCAGCCCCUGUCAGAUUCUGGUGAAUCUGCGAAUUCCGCGGUAUAUCUC [G30U C32A U69C U72G], 0.06. Take UAACAGGGGGCCACAGCAGAAGCGUUCACGACGCAGCCCCUGUCAGAUUCUGGUGAGUCUGCGAAUUCAGCUGUAUAUCUC [U31A A57G U69A]: the self-cleavage turned out to be 0.26. As for UAACAGGGGGCCACAGCAGAAGCGUUCACGACGCAGCCCCUGUCAGAUUCUGGUGGAUCUGCGAAUUCUGCUGUAUAACUC [U31A A56G U78A], the figure is 0.49; as for UAACAGGGGGCCACAGCAGAAGCGUUCACAGCGCAGCCCCUGUCAGAUUCUGAUGAAUCUGCGAAUUCUGCUGUAUAUCUC [G30A U31G G53A], 0.23.

In the case of UAACAGGGGGCCACAGCAGAAGCGUUCACGACGCGGCCCCCGUCAGAUUCUGGUGAUUCUGCGAAUUCUGCUGUAUAUCUC [U31A A35G U41C A57U], the self-cleavage was 0.54. The figure for UAACAGGGGGCCACAGCAGAAGCGUUCACGAAGCAGCCCCUGUCAGAUUCUGGUGAAUCUGCGAAUUCUGCGGUAUAUCUC [U31A C32A U72G] is 0.23; for UAACAGGGGGCCACAGCAGAAGCGUUCACAUCCCAGCCACUGUCAGACUCUGGUGAAUCUGCGAAUUCUGCUGCAUAUCUC [G30A G33C C39A U48C U74C] it is 0.11; for UAACAGGGGGCCACAGCAGAAGCGUUCACAUCGCAGCCCCUGUCAGAUACUGGUGAGUCUGCGAAUUCUGCUGUAUAUCUC [G30A U49A A57G] it is 0.1. The figure for UAACAGGGGGCCACAGCAGAAGCGUUCACGACGCAGCCCCUGUCGGAUUCUGGUGAAUCUGCCAAUUCCGCUGUAAAUCUC [U31A A45G G63C U69C U76A] is 0.07; for UAACAGGGGGCCACAGCAGAAGCGUUCACUUCGCAGCCCCAGUCAGAUCCUGGUGAAUCUGCGAAUUCCGCUGUAUAACUC [G30U U41A U49C U69C U78A] it is 0.07; for UAACAGGGGGCCACAGCAGAAGCGUUCACAUCGCAGCCCCUGCCAGAUUCUGGUGCAUCUGCGAAUUCCGCUGUAUAUCUC [G30A U43C A56C U69C] it is 0.29.

Consider UAACAGGGGGCCACAGCAGAAGCGUUCACAUCGCAGCCCCUGUCAGAUUCCGGUGAAUCCGCGAAUUCUGCUGUAUAUCUC [G30A U51C U60C], for which the self-cleavage stood at 0.41. Take UAACAGGGGGCCACAGCAGAAGCGUUCACUUCGCAGCCCCUAUCUGAUUCUGGUGAAACUGCGUAUUCUGCUGUAUAUCUC [G30U G42A A45U U58A A64U]: the self-cleavage was found to be 0.12. As for UAACAGGGGGCCACAGCAGAAGCGUUCACGACGCAGCCCCUGUCUGAUUCUGGUGGAUCUGCGAAUUCUGCUGUAUAUCUC [U31A A45U A56G], the figure is 0.15; as for UAACAGGGGGCCACAGCAGAAGCGUUCACAUCGCAGCCCCCGCCAGAUUCUGGUGAAUCCGCGAAUUCUGCUGUAUAUCUC [G30A U41C U43C U60C], 0.1. As for UAACAGGGGGCCACAGCAGAAGCGUUCACGACGCAGCCCCUGUCAGAUUCUGGUGAGUCUGCGAAUUCUGCUGUAUACCUC [U31A A57G U78C], the figure is 0.41; as for UAACAGGGGGCCACAGCAGAAGCGUUCACAUCGCAGCCCCUGUCAGAUUCUUGUGAAUCUGCGAAUUCUGCUGUACAUCUC [G30A G52U U76C], 0.21.

UAACAGGGGGCCACAGCAGAAGCGUUCACUUCGCAGCCCCUGUUAGAUUCUGGUGUAUCCGCGAACUCUGCUGUAUUUCUC [G30U C44U A56U U60C U66C A77U]: the self-cleavage is 0.05. The figure for UAACAGGGGGCCACAGCAGAAGCGUUCACGACGCAGCCCCUGUCAGAUUCUGGUGAAUCUGCGAUUUCUGCUGAAUAUCUC [U31A A65U U74A] is 0.2; for UAACAGGGGGCCACAGCAGAAGCGUUCACUUCGCCGCCCCUGUCAGAUUCUGGUGAAUCCGCGAAUUCUGCCGUAUAUCUC [G30U A35C U60C U72C] it is 0.16; for UAACAGGGGGCCACAGCAGAAGCGUUCACAUCGCAGCCCCCGUCAGAUUCUGGUGAAUCUGCUAACUCUGCUGUAUAUCUC [G30A U41C G63U U66C] it is 0.22. For UAACAGGGGGCCACAGCAGAAGCGUUCACUUCGCGGCCCCUGUCAGAUUCUGGUGAAUCUGCGAACUCUGCUGUAUAUCUC [G30U A35G U66C], the self-cleavage was 0.42.

As to UAACAGGGGGCCACAGCAGAAGCGUUCACGACGCAGCCCCUGUCAGAUUCUGGUGAGUCUGCGAACUCUGCUGUAUACCUC [U31A A57G U66C U78C], the self-cleavage is 0.43. For the variant UAACAGGGGGCCACAGCAGAAGCGUUCACAUCGCAGCCCCUGGCAGAUUCUGGCGAAUCUGCUGAUCCUGCUGUAUAUCUC [G30A U43G U54C G63U A64G U67C], the self-cleavage was found to be 0.16. The figure for UAACAGGGGGCCACAGCAGAAGCGUUCACGACGCUGCCCCUGUCAGAUUCUGGCGAAUCUGGGAAUCCUGCUGUAUAUCUC [U31A A35U U54C C62G U67C] is 0.06; for UAACAGGGGGCCACAGCAGAAGCGUUCACGACGCGGCCCCUGUCAGAUUCAGGUGAAUCUGCGAAUCCUGCUGUAUAUCUC [U31A A35G U51A U67C] it is 0.48; for UAACAGGGGGCCACAGCAGAAGCGUUCACUUCGCAGUCCCUGUCGGAUUCUGGUGAAUCUGCGUAUUCUGCUGUAUAACUC [G30U C37U A45G A64U U78A] it is 0.04. Consider UAACAGGGGGCCACAGCAGAAGCGUUCACCUCGCAGCCCCUGUCAGAUCCUGGUGAAUCUGCGUAUUCUGCUGUAUAUCUC [G30C U49C A64U], for which the self-cleavage amounted to 0.1.

For UAACAGGGGGCCACAGCAGAAGCGUUCACGACGCGGCCCCUGUCAGAUUCUGGUGAAUCAGCGAAUUCUGCUGUAUAUCUC [U31A A35G U60A], the self-cleavage is 0.75. The figure for UAACAGGGGGCCACAGCAGAAGCGUUCACAUCGCAGCCCCUGUCAGAUCCUGGUGAAGCUGCGAGUUCUGCUGUAUAUCUC [G30A U49C U58G A65G] is 0.06.

These data come from the RNAGym collection of RNA variant scans (doi:10.1093/nar/gkz1192).
